# Reference: publication PMC4336329 (PLoS ONE, 2015)
# In all, about 310,000 compounds went through this assay and about 14,000 (4.5%) showed an effect of 50% or more. Effects have a minus sign here. Some of the results follow.
# Biological target: human ether-à-go-go-related gene (hERG) potassium channel (human, UniProt Q12809)
# Assay: primary screen, population patch clamp on CHO cells stably expressing hERG
# 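Note: peak tail current of the secondary pulse compared with the same well before compound.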
# Chain of human ether-à-go-go-related gene (hERG) potassium channel (Q12809 whole entry, looked up): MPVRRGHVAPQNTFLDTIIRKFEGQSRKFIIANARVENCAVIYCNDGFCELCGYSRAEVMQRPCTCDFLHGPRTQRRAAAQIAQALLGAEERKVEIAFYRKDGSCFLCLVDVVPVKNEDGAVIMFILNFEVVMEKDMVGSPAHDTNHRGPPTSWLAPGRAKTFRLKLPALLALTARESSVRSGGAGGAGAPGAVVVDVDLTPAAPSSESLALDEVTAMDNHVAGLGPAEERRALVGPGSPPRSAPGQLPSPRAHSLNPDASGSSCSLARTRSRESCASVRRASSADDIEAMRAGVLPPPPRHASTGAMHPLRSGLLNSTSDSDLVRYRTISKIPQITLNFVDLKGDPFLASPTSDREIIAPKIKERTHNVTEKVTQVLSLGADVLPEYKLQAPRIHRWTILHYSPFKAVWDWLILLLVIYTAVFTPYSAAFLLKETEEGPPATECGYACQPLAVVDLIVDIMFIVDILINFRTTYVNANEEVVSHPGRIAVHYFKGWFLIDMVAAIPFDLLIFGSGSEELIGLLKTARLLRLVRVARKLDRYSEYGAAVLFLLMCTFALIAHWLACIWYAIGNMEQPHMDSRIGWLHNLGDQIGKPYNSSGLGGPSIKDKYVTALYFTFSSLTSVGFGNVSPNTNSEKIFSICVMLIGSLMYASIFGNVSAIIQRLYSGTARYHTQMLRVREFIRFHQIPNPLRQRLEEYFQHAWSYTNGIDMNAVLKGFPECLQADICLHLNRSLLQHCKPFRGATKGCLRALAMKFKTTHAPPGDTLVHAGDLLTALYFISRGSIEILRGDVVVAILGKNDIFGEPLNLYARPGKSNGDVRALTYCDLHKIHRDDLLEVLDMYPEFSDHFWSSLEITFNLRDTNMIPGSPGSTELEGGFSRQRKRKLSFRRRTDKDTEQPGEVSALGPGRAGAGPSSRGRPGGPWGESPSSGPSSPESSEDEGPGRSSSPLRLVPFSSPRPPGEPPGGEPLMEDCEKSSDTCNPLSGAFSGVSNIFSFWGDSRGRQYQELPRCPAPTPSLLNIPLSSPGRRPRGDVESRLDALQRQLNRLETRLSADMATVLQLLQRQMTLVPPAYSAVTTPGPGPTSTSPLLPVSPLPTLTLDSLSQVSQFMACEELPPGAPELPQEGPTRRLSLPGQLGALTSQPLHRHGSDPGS
row,SMILES,"hERG current change (%, negative = inhibition) at 10uM [%]"
1,CCOc1ccccc1N1CCN(C(=O)c2ccncc2)CC1,-8.78
2,Cc1c(C(=O)NCCCN2CCCCC2)oc2ccc3c(c12)C(O)CC1(CCCCC1)O3 (centres unmarked),-32.2
3,CCOC(=O)c1c(C)nn(-c2ccc(NC(=O)/C=C/C(=O)O)cc2)c1C,16.9
4,Cc1ccc(S(=O)(=O)c2nc(-c3ccc(F)cc3)oc2SCC(N)=O)cc1,-11
5,CCCCc1cc(=O)oc2cc(C)cc(OCC(=O)NCCN3CCOCC3)c12,-9.56
6,COc1ccccc1NC(=O)CCN1CCN(c2ccc(Cl)cc2)CC1,-33.9
7,CCN(CC(=O)Nc1c(F)cccc1F)C(=O)CCC(=O)c1ccc(F)cc1,-12.1
8,O=C(c1cccs1)N1CCC(c2nc3c(nnn3Cc3ccccc3)c(=O)[nH]2)CC1,-1.65
9,O=C(O)C(Cc1ccc(Cl)cc1)NS(=O)(=O)c1ccc(Cl)cc1 (centres unmarked),27.1
10,Cc1ccccc1CC(=O)N1CCOCC1,10.5
11,Cn1cccc1CN1CCN(C(=O)COc2ccccc2)CC1,7.81
12,COc1ccc(OC)c(/C=C/C(=O)N(C)CC(=O)Nc2ccc(C)cc2)c1,-18.3
13,NS(=O)(=O)c1ccc(N/N=C/c2cn(-c3ccccc3)nc2-c2cccs2)cc1,8.01
14,CC(C)N1C(=O)/C(=C/c2nc3ccccc3c(=O)n2-c2ccccc2)c2ccccc21,8.46
15,Cn1nc(C(=O)N2CCN(c3cccc(Cl)c3)CC2)c2c1-c1ccccc1S(=O)(=O)C2,-53.4
16,CCOc1ccc(S(=O)(=O)NCCC(=O)Nc2cccc(C(=O)OC)c2)cc1,-13.7
17,CNC(=S)N/N=C(\C)c1ccc(C)c(C)c1,-3.4
18,Cn1ccsc1=NC(=O)c1ccc([N+](=O)[O-])o1,13.1
19,Cc1cc(C)c(NC(=O)COc2ccccc2C(=O)Nc2ccc3c(c2)oc2ccccc23)c(C)c1,0.161
20,O=C(Nc1cccc(-n2cnnn2)c1)c1ccccc1Br,-14.4
21,C/C(=N\NC(=O)C(O)c1ccccc1)c1ccc(Cl)s1 (centres unmarked),-3.54
22,CCCC(=O)NCCCc1nc2ccccc2n1CC,-6.84

row,SMILES,"hERG current change (%, negative = inhibition) at 10uM [%]"
1,O=C(Nc1cnc2ccccc2c1)c1cccnc1,12.1
2,CC(=O)Nc1csc2ccccc12,3.39
3,CC(=O)NCCNC(=O)c1ccc(NC2=NC3CS(=O)(=O)CC3S2)cc1 (centres unmarked),8.34
4,Cc1cc(C)c2nc(N3CCCC(C(=O)NCCN4CCOCC4)C3)sc2c1 (centres unmarked),-9.94
5,CCNC(=S)N1CCC(C(=O)c2ccc(Cl)cc2)CC1,-16.8
6,CCN1CCN(C(=O)C2CCN(S(=O)(=O)c3ccc(Br)cc3)CC2)CC1,-17.3
7,Cc1cc(C)c(S(=O)(=O)NCc2ccc3c(c2)OCO3)cc1C,-6.86
8,COc1ccc(CCNC(=O)C2CCCN(c3nc(C)cc(C)n3)C2)cc1 (centres unmarked),-3.89
9,COc1ccc(C(=O)NCCn2cc(SCC(N)=O)c3ccccc32)cc1,3.5
10,O=C(NCc1ccncc1)c1ccc(Cn2cc(C(F)(F)F)ccc2=O)cc1,17.4
11,O=C(Nc1ccc(N2CCN(C(=O)c3ccccc3F)CC2)cc1)c1cncc(Br)c1,2.88
12,O=C(COC(=O)c1cccc([N+](=O)[O-])c1)c1ccc2c(c1)OCO2,-12.7
13,Cc1c(Cc2ccccc2)c(=O)oc2c(C)c(OC(C)C(=O)NCC3CCC(C(=O)O)CC3)ccc12 (centres unmarked),15
14,COc1cc2c(cc1NC(=O)c1ccncc1)oc1ccccc12,-3.29
15,NNC(=O)Cn1c(-c2ccccn2)nc2ccccc21,14.9
16,CC(C)c1ccc(NC(=O)[C@H](Cc2c[nH]c3ccccc23)NC(=O)[C@@H]2Cc3ccccc3CN2)cc1,-5.18
17,COc1ccc(C)cc1NC(=O)CSc1ccc(Cl)cc1,11.1
18,CCOC(=O)CN1C(=N)N(c2nc(NC(C)C)nc(NC(C)C)n2)CC1=O,-73.8
19,CCC(C)N(C(=O)COc1ccc(Br)cc1C=O)C1CCS(=O)(=O)C1 (centres unmarked),-33.2
20,Cc1cccc(NC(=O)Cn2nnc3ccccc32)c1,17.8
21,COC(=O)c1ccc(S(=O)(=O)c2ccc(C(=O)OC)s2)s1,16.3
22,Cc1cc(C)cc(N(CCC#N)C(=O)CSc2n[nH]c(N)n2)c1,12.6
